Counter-ions that a name gives are not always drawn. The whole screen tested about 1,300 compounds, of which about 40 (3%) showed activity. The list shows a part of the results.

The values that follow come from the supplement of paper PMC12297408.

For this assay, the system named is Plasmodium falciparum NF54/iGP1_RE9H ulg8 stage V gametocytes. The assay can be described thus: gametocyte viability (luciferase signal relative to DMSO control) (% of DMSO control); higher = less gametocytocidal activity, active = 50 or less. The note with it: exposure time: 72 h. In short, it runs like this: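 Stage V gametocytes of the NF54/iGP1_RE9Hulg8 line (day 12; ~2.5% gametocytemia, 3% hematocrit), in medium containing 0.5% Albumax II, were dispensed into 96-well plates with compounds spotted in nanolitre volumes from 10 mM DMSO stocks, for final concentrations of 10 µM or 1 µM in a single well each. After 72 h at 37 °C, 90 µl from each well was combined with 10 µl D-luciferin (30 mg/ml), and luminescence was measured on an IVIS Lumina II. Viability was expressed against the mean of the DMSO vehicle wells on the same plate.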

For the compound `C[C@]12C[C@H](O)[C@H]3[C@@H](CCC4=CC(=O)CC[C@@]43C)[C@@H]1CC[C@@H]2C(=O)CO` [Corticosterone], the gametocyte viability reads like this: (concentration: 1 µM) inactive: 93.8; (concentration: 10 µM) inactive: 90.4.
The like results for `COC(=O)C1=C(C)NC(C)=C(C(=O)OC2CCCN(Cc3ccccc3)C2)C1c1cccc([N+](=O)[O-])c1` (stereo unspecified) [Benidipine hydrochloride] were, in that order, inactive: 79.4 and inactive: 70.7.
With `Nc1c2c(nc3ccccc13)CCCC2` [Tacrine hydrochloride], the gametocyte viability (concentration: 1 µM) is inactive: 82.3 and the gametocyte viability (concentration: 10 µM) is inactive: 79.9.
With `CCN(CC)C(=S)SSC(=S)N(CC)CC` [Disulfiram], the gametocyte viability (concentration: 1 µM) is inactive: 91.9 and the gametocyte viability (concentration: 10 µM) is inactive: 55.8.
Consider `C/C(=C(\CCOP(=O)(O)O)SC(=O)c1ccccc1)N(C=O)Cc1cnc(C)nc1N` [Benfotiamine], for which the gametocyte viability is, setting by setting: (concentration: 1 µM) inactive: 90.6; (concentration: 10 µM) inactive: 96.
In the same order, the values of `C[C@H](N)[C@H](O)c1cccc(O)c1` [Metaraminol bitartrate] are inactive: 88.5 and inactive: 87.
As for `CCN(CC)CCOC(=O)C(Cc1cccc2ccccc12)CC1CCCO1` (stereo unspecified) [Nafronyl oxalate], the gametocyte viability runs as follows: (concentration: 1 µM) inactive: 99.3; (concentration: 10 µM) inactive: 90.6.
In the same order, the values of `O=C1CN(/N=C/c2ccc([N+](=O)[O-])o2)C(=O)N1` [Nitrofurantoin] are inactive: 83.4 and inactive: 82.5.
Take `Cc1ccccc1OCC(O)CO` (stereo unspecified) [Mephenesin]: the gametocyte viability runs as follows: (concentration: 1 µM) inactive: 97.9; (concentration: 10 µM) inactive: 91.8.
With `CC1(C)S[C@@H]2[C@H](NC(=O)[C@H](C(=O)O)c3ccsc3)C(=O)N2[C@H]1C(=O)O` [Ticarcillin sodium], the gametocyte viability is inactive: 81.2 (concentration: 1 µM) and inactive: 80 (concentration: 10 µM).
In the case of `Cc1cc(NS(=O)(=O)c2ccc(N)cc2)no1` [Sulfamethoxazole], the gametocyte viability reads like this: (concentration: 1 µM) inactive: 82.4; (concentration: 10 µM) inactive: 81.5.
As to `CN[C@@H]1[C@@H](O)[C@@H](O[C@@H]2[C@@H](O)[C@H](O[C@H]3OC(CN)=CC[C@H]3N)[C@@H](N)C[C@H]2N)OC[C@]1(C)O` [Sisomicin sulfate], the gametocyte viability is, setting by setting: (concentration: 1 µM) inactive: 88.2; (concentration: 10 µM) inactive: 87.3.
In the same order, the values of `O=C1CN(/N=C/c2ccc(-c3ccc([N+](=O)[O-])cc3)o2)C(=O)N1` [Dantrolene sodium salt] are inactive: 91.7 and inactive: 103.
With `CCOC(=O)n1ccn(C)c1=S` [Carbimazole], the gametocyte viability is inactive: 78.6 (concentration: 1 µM) and inactive: 84.9 (concentration: 10 µM).
The like results for `CCCC1O[C@@H]2C[C@H]3[C@@H]4CCC5=CC(=O)C=C[C@]5(C)[C@H]4[C@@H](O)C[C@]3(C)[C@]2(C(=O)CO)O1` (stereo partly specified) [Budesonide] were, in that order, inactive: 85.4 and inactive: 84.4.
In the same order, the values of `CC(C(=O)O)c1cccc(C(=O)c2ccccc2)c1` (stereo unspecified) [Ketoprofen] are inactive: 86.2 and inactive: 87.1.
With `CCOC(=O)C1=C(C)NC(C)=C(C(=O)OCC)C1c1ccccc1/C=C/C(=O)OC(C)(C)C` [Lacidipine], the gametocyte viability reads like this: (concentration: 1 µM) inactive: 97.1; (concentration: 10 µM) inactive: 96.5.
With `CCOc1cc(CC(=O)N[C@@H](CC(C)C)c2ccccc2N2CCCCC2)ccc1C(=O)O` [Repaglinide], the gametocyte viability by setting is: (concentration: 1 µM) inactive: 83; (concentration: 10 µM) inactive: 84.7.
Take `C#C[C@]1(O)CC[C@H]2[C@@H]3CCc4cc(O)ccc4[C@H]3CC[C@@]21C` [Ethinylestradiol]: the gametocyte viability is inactive: 91.5 (concentration: 1 µM) and inactive: 68.6 (concentration: 10 µM).
Turning to `CCCCN(CCCC)CCC(O)c1cc2c(Cl)cc(Cl)cc2c2cc(C(F)(F)F)ccc12` (stereo unspecified) [Halofantrine hydrochloride], the gametocyte viability by setting is: (concentration: 1 µM) inactive: 84.7; (concentration: 10 µM) inactive: 70.2.
Regarding `Nc1nc2c(ncn2COCCO)c(=O)[nH]1` [Acyclovir], the gametocyte viability by setting is: (concentration: 1 µM) inactive: 98.3; (concentration: 10 µM) inactive: 90.8.
The like results for `CC(C)(C)NC(=O)[C@@H]1C[C@@H]2CCCC[C@@H]2CN1C[C@@H](O)[C@H](Cc1ccccc1)NC(=O)[C@H](CC(N)=O)NC(=O)c1ccc2ccccc2n1` [Saquinavir mesylate] were, in that order, inactive: 82.4 and inactive: 78.9.
The like results for `CCCCCN(CCCCC)C(=O)C(CCC(=O)O)NC(=O)c1ccc(Cl)c(Cl)c1` (stereo unspecified) [Lorglumide sodium salt] were, in that order, inactive: 93.2 and inactive: 91.3.
`COc1c(N2C[C@@H]3CCCN[C@@H]3C2)c(F)cc2c(=O)c(C(=O)O)cn(C3CC3)c12` [Moxifloxacin]: the gametocyte viability reads like this: (concentration: 1 µM) inactive: 83.8; (concentration: 10 µM) inactive: 81.1.
The like results for `COc1ccc(C(=O)c2ccccc2)c(O)c1` [Oxybenzone] were, in that order, inactive: 89.3 and inactive: 84.8.
In the same order, the values of `COc1ncnc(NS(=O)(=O)c2ccc(N)cc2)c1OC` [Sulfadoxine] are inactive: 96.5 and inactive: 92.9.
As for `CC(=O)OCC(=O)[C@@]1(O)[C@H](C)C[C@H]2[C@@H]3CCC4=CC(=O)C=C[C@]4(C)[C@@]3(F)[C@@H](O)C[C@@]21C` [Dexamethasone acetate], the gametocyte viability reads like this: (concentration: 1 µM) inactive: 83.3; (concentration: 10 µM) inactive: 84.6.
The like results for `COc1ccc(C(=O)CC(=O)c2ccc(C(C)(C)C)cc2)cc1` [Avobenzone] were, in that order, inactive: 80.5 and inactive: 78.8.
